# Measurements reported in PubChem BioAssay AID360 (National Center for Advancing Translational Sciences (NCATS), 2006).
# In all, about 48,000 compounds went through this assay and about 550 (1.1%) were called active. About 4% were inconclusive and are not listed. Cut-off read from the data, not from the text of the source: active = potency below about 15 µM; inconclusive = mostly about 16 µM to 33 µM; inactive = weaker than that. The list shows a part of the results.
# Target: Lysosomal acid glucosylceramidase (Homo sapiens) (UniProt P04062)
# Assay: Glucocerebrosidase;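 note: the screen sought inhibitors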
# Conditions: purified enzyme, resorufin glucoside fluorescence (screen aimed at inhibitors), 20 min; series mostly up to 77 µM
# Summary of the method: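 Compounds titrated against 0.2 nM normal enzyme, 30 uM resorufin beta-D-glucopyranoside substrate, citrate/phosphate buffer with taurocholate and tween-20, pH 5.9. Reaction ran 20 min at room temperature; fluorescence (Ex 548/Em 600) gave AC50.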
# Potency is the fitted concentration of half-maximal effect.
# Chain of UniProt P04062 (P04062 whole entry, looked up): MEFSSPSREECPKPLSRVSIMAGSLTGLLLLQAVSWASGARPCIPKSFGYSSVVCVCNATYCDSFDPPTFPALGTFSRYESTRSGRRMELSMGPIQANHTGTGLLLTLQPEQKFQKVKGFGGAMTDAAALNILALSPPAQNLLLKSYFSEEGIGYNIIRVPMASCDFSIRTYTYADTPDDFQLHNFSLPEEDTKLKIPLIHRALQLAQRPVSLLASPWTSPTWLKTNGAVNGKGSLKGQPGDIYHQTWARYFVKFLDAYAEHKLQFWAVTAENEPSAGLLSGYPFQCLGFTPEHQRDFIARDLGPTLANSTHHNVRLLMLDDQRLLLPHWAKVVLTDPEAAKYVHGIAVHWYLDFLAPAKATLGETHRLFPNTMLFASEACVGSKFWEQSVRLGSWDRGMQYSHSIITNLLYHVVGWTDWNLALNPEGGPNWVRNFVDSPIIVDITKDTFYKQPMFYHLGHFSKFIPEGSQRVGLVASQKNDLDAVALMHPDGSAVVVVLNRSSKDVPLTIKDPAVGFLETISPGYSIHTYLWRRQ
row,Compound,Potency
1,CSCC[C@H](NC(=O)OC(C)(C)C)C(=O)N1CCC(C(=O)N[C@@H](C)C(=O)O)CC1,inactive: > 76.9 µM
2,O=C(c1cc2ccccc2o1)c1cccs1,inactive: > 76.9 µM
3,CCOC(=O)c1ccc(N2C(=O)CC(N3CCN(C(=O)c4ccco4)CC3)C2=O)cc1 (stereo not given),inactive: > 76.9 µM
4,CC1CN(C(=O)CN2C(=O)NC(C)(c3ccccc3)C2=O)CC(C)O1 (stereo not given),inactive: > 76.9 µM
5,Cc1ccnc(NS(=O)(=O)c2ccccc2)n1,inactive: > 76.9 µM
6,C/C(N)=C(/C#N)C(=O)CSc1nc2ccc(C)cc2[nH]1,inactive: > 76.9 µM
7,O=C(Nc1ccc(N2CCOCC2)cc1)c1cnsn1,inactive: > 76.9 µM
8,CCOc1cc2[nH]c(=S)n(Cc3ccc(C)o3)c(=O)c2cc1OCC,inactive: > 76.9 µM
9,Cc1ccc(-c2nnc(-c3ccc(NC(=O)c4ccco4)cc3)o2)cc1,inactive: > 76.9 µM
10,CCc1ccc2oc(=O)cc(CN(C)Cc3ccccc3)c2c1,inactive: > 76.9 µM
11,CCCn1c(SCC(=O)N2CCCc3ccccc32)nc2c1c(=O)n(C)c(=O)n2C,inactive: > 76.9 µM
12,CCOC(=O)Cc1csc(NC(=O)c2cnc3scc(C)n3c2=O)n1,inactive: > 76.9 µM
13,N#Cc1ccc(NC(=O)COC(=O)C2=COCCO2)cc1,inactive: > 76.9 µM
14,Cc1ccc2[nH]c(C(=O)O)c(-c3ccccc3)c2c1,inactive: > 76.9 µM
15,COc1ccccc1OCC(=O)NCC1CCCCC1,inactive: > 76.9 µM
16,O=C(O)c1ccc2c(c1)NC(=O)C(N1CCCC1)S2 (stereo not given),inactive: > 76.9 µM
17,CCOc1ccc(CCNC(=O)C2CCN(c3ccc(N4CCOCC4)nn3)CC2)cc1OCC,inactive
18,O=C(NCc1ccccn1)c1cc2cc(Br)ccc2oc1=O,inactive: > 76.9 µM
19,COc1ccc(CN2C(=O)c3ccccc3C2C(=O)NCC2CCCO2)c(OC)c1 (stereo not given),inactive: > 76.9 µM
20,CC(CCc1ccccc1)NC(=O)CSc1nccc(=O)[nH]1 (stereo not given),inactive: > 76.9 µM

row,Compound,Potency
1,Cc1cccc(Nc2nc3c(c(=O)n(C)c(=O)n3C)n2CC(O)CO)c1 (stereo not given),inactive: > 76.9 µM
2,CCC(=O)Nc1cccc(-n2nnnc2SCC(=O)NCc2ccco2)c1,inactive: > 76.9 µM
3,CCOc1ccc(-n2c(Cc3cc(=O)[nH]c(=O)[nH]3)nnc2SCC(N)=O)cc1,inactive: > 76.9 µM
4,O=C(c1cccs1)N(Cc1cccc(Cl)c1)C1CCS(=O)(=O)C1 (stereo not given),inactive: > 76.9 µM
5,CCOC(=O)C1=C(c2ccccc2)Nc2ncnn2C1c1ccccn1 (stereo not given),inactive: > 76.9 µM
6,O=C(CCn1c(=O)sc2ccccc21)NC1=NCCS1,inactive: > 76.9 µM
7,O=C(NC1CCCc2ccccc21)C1CCN(S(=O)(=O)N2CCCCCC2)CC1 (stereo not given),inactive: > 76.9 µM
8,CN(C(=O)c1ccccn1)c1nnc(-c2cccnc2)s1,inactive: > 76.9 µM
9,COc1ccc(C(C)NC(=O)c2ccoc2C)cc1OC (stereo not given),inactive: > 76.9 µM
10,Cc1nnc(SCC(=O)Nc2ccccc2NC(=O)CSc2nnc(C)s2)s1,inactive: > 76.9 µM
11,CCOC(=O)/C=C1\Nc2ccccc2SC1=O,inactive: > 76.9 µM
12,COc1ccc(NS(=O)(=O)c2ccc(OCC(=O)N3CCCC3)cc2)cc1,inactive: > 76.9 µM
13,Cc1cc(C)nc(Nc2ncc(O)n2-c2ccc(C)c(Cl)c2)n1,inactive: > 76.9 µM
14,COc1ccc(C2C3=C(N=C4SCC(=O)N42)c2ccccc2CC3)cc1 (stereo not given),inactive
15,CC1NC(=O)NC1CCCCCC(=O)NCCc1ccccc1 (stereo not given),inactive: > 76.9 µM
16,CCCN1C(=O)C(O)(C2CC(=O)CC(C)(C)O2)c2ccccc21 (stereo not given),inactive: > 76.9 µM
17,Cc1ccc2[nH]c3c(NCCCN4CCCC4=O)ncnc3c2c1,inactive: > 76.9 µM
18,CC(c1ccccc1)C1CC(=O)N(CC(=O)O)C1=O (stereo not given),inactive: > 76.9 µM
19,COC(=O)c1[nH]c2ccc(C)cc2c1NC(=O)CN1CCC(C)CC1,inactive: > 76.9 µM
20,CCc1ccc(NC2=NCC(=O)N2c2ccc3c(c2)OCCO3)cc1,inactive: > 76.9 µM

row,Compound,Potency
1,Cc1c(-c2ccccc2)nc2ccccc2c1C(=O)O,inactive: > 76.9 µM
2,O=C(NCCC1=CCCCC1)C1CCCN(S(=O)(=O)c2ccc(F)cc2)C1 (stereo not given),inactive: > 76.9 µM
3,CCC1Oc2ccc(C)cc2N(CC(=O)NCCCN2CCCCC2CC)C1=O (stereo not given),inactive: > 76.9 µM
4,Cc1cc(C)c2nc(N3CCCC3)c(C#N)cc2c1,inactive: > 76.9 µM
5,O=C1CSc2ccccc2N1Cc1ccccc1F,inactive: > 76.9 µM
6,c1cncc(-c2nnc(C3CCCCC3)o2)c1,inactive: > 76.9 µM
7,Cc1ccc(OCCn2c(=O)cnc3ccccc32)cc1,inactive: > 76.9 µM
8,Cc1ccc(-c2cc(C(=O)N3CCCC3)no2)cc1,inactive: > 76.9 µM
9,Cc1noc(C)c1S(=O)(=O)N1CCC(Cc2ccccc2)CC1,inactive: > 76.9 µM
10,Cc1cc(C)n(C(=O)C23CC4CC(CC(C4)C2)C3)n1,inactive: > 76.9 µM
11,C=C(C)Cn1c(CCCNC(=O)CC)nc2ccccc21,inactive: > 76.9 µM
12,Cc1cccn2c(=O)c(C=Nc3ccc(Cl)cc3)c(NCCO)nc12,inactive: > 76.9 µM
13,CCCn1c(=NC(C)=O)c(C#N)cc2c(=O)n3cccc(C)c3nc21,inactive: > 76.9 µM
14,O=C(CC(=O)c1ccccc1)Nc1ccc2c(c1)OCCO2,inactive: > 76.9 µM
15,Cc1ccc(NC(=O)c2cccc(N3C(=O)CCC3=O)c2)nc1,inactive: > 76.9 µM
16,OC(COc1ccc2ccccc2c1)Cn1ccnc1 (stereo not given),inactive: > 76.9 µM
17,COc1ccccc1NC(=O)Cc1noc(CSc2nnc(C)s2)n1,inactive: > 76.9 µM
18,CCCC12CN3CC(C)(CN(C1)C3c1ccc(OC(C)C)cc1)C2=O (stereo not given),active: 1.97 µM
19,O=S(=O)(c1ccc(Br)s1)N1CCc2ccccc2C1,inactive: > 76.9 µM
20,Cn1c(=O)[nH]c(=O)c2c1nc(CN1CCN(c3ccc(F)cc3)CC1)n2CCc1ccccc1,inactive: > 76.9 µM
